From PubChem BioAssay AID652104 (National Center for Advancing Translational Sciences (NCATS), 2013)
Screen size: about 410,000 compounds; about 7,200 (1.8%) were called active. This list was built around the results that the source calls inconclusive (neither active nor inactive); the mix of calls is not that of the screen. Calls come from the whole dose curve; as a rule, active = well fitted activation curve with a large enough effect; inconclusive = small, poorly fitted or top-dose-only effect, or another doubt; inactive = no such curve, though single readings can be large or run the other way. No potency is given beside an inconclusive call; the fits are too rough.

test: qHTS of TDP-43 Inhibitors; conditions: TDP-43 expressing yeast growth rescue, BacTiter-Glo, 24 h; growth rescue (activation): at 46.1 µM (top of the series) unless noted; note: nearly all actives have a fitted effect of over 50% in size; for growth rescue (activation): % of control where 0% means no effect
Outline: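 Readout is BacTiter-Glo luminescence of cell growth, so inhibitors register as activators. TDP-43-expressing yeast at OD600=0.02 in galactose medium, after raffinose pregrowth to mid-log, were incubated with compound for 24 hr at 30 deg C.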
Potency is the fitted concentration of half-maximal effect; tags give direction and shape of the fitted curve.

| SMILES | Potency | growth rescue (activation) |
| --- | --- | --- |
| CCCNC(=S)N1CCN(c2nc(C)nc3sc4c(c23)CCCC4)CC1 | inconclusive [activator, single point] | – |
| COc1ccccc1NC(=O)C1CCCN(c2ncnc3c2nc2n3CCCCC2)C1 (configuration not stated) | inconclusive [activator, single point] | – |
| Cc1cc(Cn2nc(C(=O)NCc3cccc(C(F)(F)F)c3)cc2-c2ccccc2)on1 | inconclusive [activator, partial curve] | – |
| O=C(CN1C(=O)NC2(CCCCCCC2)C1=O)NCc1ccccc1Cl | inactive | – |
| O=C(NC(Cc1c[nH]c2ccccc12)C(=O)O)OCC1c2ccccc2-c2ccccc21 (configuration not stated) | inactive | – |
| Cc1nc2cc(-c3cccc(F)c3)nn2c(C)c1CCC(=O)NC1CCCCC1 | inactive | – |
| O=C1CC(N2CCC(c3nc4ccccc4s3)CC2)C(=O)N1Cc1ccccc1 (configuration not stated) | inconclusive [activator, partial curve] | – |
| COc1ccc(OC)c(CNc2ncnc3onc(-c4ccc(Cl)cc4)c23)c1 | inconclusive [activator, partial curve] | – |
| O=C(O)c1ccc(/C=N/Nc2ccc(F)cc2F)cc1 | inconclusive [activator, full curve] | – |
| CC(C)OCCCNC(=S)N1CCC(C(=O)c2ccc3c(c2)OCCO3)CC1 | inconclusive [activator, partial curve, poor fit] | – |
| CC(C)Oc1ccc(C(=O)OCC(=O)NC2CCCCCC2)cc1 | inconclusive [activator, partial curve] | – |
| C/C(=N\Nc1nc2ccccc2s1)c1ccc(Br)s1 | – | inconclusive: -71.2% [activator] |
| CC1CCc2c(sc(NC(=O)c3ccccc3)c2C(=O)Nc2ccccc2)C1 (configuration not stated) | inconclusive [activator, single point] | – |
| O=C(CC12CC3CC(CC(C3)C1)C2)Nc1c(F)cccc1F | inconclusive [activator, full curve] | – |
| O=[N+]([O-])c1ccc(Sc2nnnn2-c2ccccc2)c(Cl)c1 | inconclusive [activator, single point] | – |
| Cc1cc(SCCC(=O)O)nc2ccccc12 | inconclusive [activator, single point] | – |
| CC(=O)n1nc(-c2cccnc2)nc1NCc1cccs1 | inconclusive [activator, single point] | – |
| CCn1c(=NC(=O)CS(=O)(=O)c2ccc(C)cc2)sc2cccc(OC)c21 | inconclusive [activator, single point] | – |
| O=C(C1CCCN(S(=O)(=O)c2cc(Cl)ccc2Cl)C1)N1CCCC1 (configuration not stated) | inconclusive [activator, partial curve] | – |
| O=[N+]([O-])c1ccc(-c2nc(NCc3ccccc3)c3ccccc3n2)cc1 | inactive | – |
| O=C(Cc1csc(-c2ccccc2)n1)NCc1cccs1 | inconclusive [activator, single point] | – |
| Cc1cccc(C)c1Cn1c(C)c(C(=O)NCc2ccc([N+](=O)[O-])cc2)sc1=O | active: 11.2 µM | – |
| CCOc1ccccc1C(=O)OCC(=O)Nc1nnc(-c2ccccc2)o1 | active: 22.4 µM | – |

| SMILES | Potency | growth rescue (activation) |
| --- | --- | --- |
| O=C(Nc1cccc(C(F)(F)F)c1)C(Sc1ncnc2ccccc12)c1ccccc1 (configuration not stated) | inconclusive [activator, single point] | – |
| COc1ccc(C(=S)N2CCOCC2)cc1OC(=O)c1ccccc1Cl | inconclusive [activator, single point] | – |
| COc1ccc(NS(=O)(=O)c2ccc(Br)cc2)cn1 | inconclusive [activator, single point] | – |
| CC(=O)N1N=C(c2ccccc2)OC1c1ccc([N+](=O)[O-])s1 (configuration not stated) | inconclusive [activator, single point] | – |
| CC1(C(=O)NS(=O)(=O)c2ccc3ccccc3c2)CCN1C(=O)C1(c2ccc(Cl)cc2)CCC1 (configuration not stated) | inactive | – |
| CNc1nc(C)nc(-c2ccccc2O)n1 | inconclusive [activator, full curve] | – |
| COc1ccc(N2CCN(C(=O)c3cccc(Cn4cc(Cl)cn4)c3)CC2)cc1 | inconclusive [activator, single point] | – |
| Cc1cc(C(=O)COC(=O)Cc2n[nH]c(=O)c3ccccc23)c(C)n1-c1cccc(C(F)(F)F)c1 | inconclusive [activator, single point] | – |
| CC(C)(C)C1CCc2c(sc(NC(=O)c3ccccc3F)c2C(=O)N2CCCCC2)C1 (configuration not stated) | inactive | – |
| COc1cccc(-n2nnnc2SCC(=O)N2CCCc3ccccc32)c1 | inconclusive [activator, single point] | – |
| CCOc1ccc(-c2nonc2NC(=O)c2ccccc2C)cc1 | inactive | – |
| O=C(O)Cc1sc(-c2ccccc2)nc1-c1ccccc1 | inconclusive [activator, single point] | – |
| CCc1nc2oc3ccccc3c(=O)c2cc1C(=O)OC | inconclusive [activator, single point] | – |
| Cc1cc(C)c(NC(=O)CSc2nc(=O)n(Cc3ccco3)c3c2CCC3)c(C)c1 | inconclusive [activator, full curve] | – |
| CC(Sc1nnc(Cc2cccs2)n1C1CCCCC1)C(N)=O (configuration not stated) | inconclusive [activator, full curve, poor fit] | – |
| COc1ccc(/C=N/OCC(=O)OCC(=O)N(C)c2ccccc2)cc1 | inconclusive [activator, full curve, poor fit] | – |
| C[C@@H](C(=O)NCCc1ccccc1)N1C(=O)N2CCc3c([nH]c4ccccc34)[C@@]2(C)C1=O | active: 35.5 µM | – |
| O=C(Nc1cccc(S(=O)(=O)N2CCCC2)c1)c1ccc2c(=O)n3c(nc2c1)CCCCC3 | inconclusive [activator, single point] | – |
| OC(c1ccccc1)c1nc(-c2cccs2)cs1 (configuration not stated) | inconclusive [activator, partial curve] | – |
| CN(/N=C\c1ccc(O)c(O)c1)c1nc(-c2ccccc2)cc(-c2ccccc2)n1 | inconclusive [activator, partial curve] | – |
| O=C(NC(=S)Nc1ccccn1)c1ccc(-c2ccccc2)cc1 | inconclusive [activator, partial curve] | – |
| COc1cccc(NC(=O)CSc2nc(-c3ccccc3)nc3c2Cc2cc(Cl)ccc2O3)c1 | inconclusive [activator, full curve, poor fit] | – |
| Nc1ncnc2c1c(-c1ccc(Oc3ccccc3)cc1)cn2C1CCCC1 | inactive | – |

| SMILES | Potency | growth rescue (activation) |
| --- | --- | --- |
| CCC(=O)Oc1c(C(=O)CC)cc2c(C)cc(=O)oc2c1C | inconclusive [activator, single point] | – |
| COc1ccc(-c2nc3ccccc3nc2-c2ccccc2)cc1 | inconclusive [activator, single point] | – |
| Cc1cccc(C(=O)Nc2ccc(S(=O)(=O)N3CCOCC3)cc2)c1[N+](=O)[O-] | inconclusive [activator, partial curve, poor fit] | – |
| Cc1csc2nc(-c3cccc(NC(=O)c4cccc(F)c4)c3)cn12 | inconclusive [activator, single point] | – |
| CC(=O)c1cccc(NC(=O)CCC(=O)c2ccc(F)cc2)c1 | inactive | – |
| COc1ccc(C)cc1N(C)C(=O)c1sc2nc3n(c(=O)c2c1C)CCCCC3 | inactive | – |
| COc1ccc(-c2ccc(=O)n(Cc3c(F)cccc3Cl)n2)cc1 | inconclusive [activator, single point] | – |
| CC(C)Oc1ccc(CCc2n[nH]c(=S)n2Cc2ccccc2)cc1 | inconclusive [activator, single point] | – |
| Cc1cc(Oc2ccccc2F)nc(NCc2ccccc2)n1 | inconclusive [activator, partial curve] | – |
| CC(=O)c1c(C)[nH]c(C(=O)OCC(=O)Nc2cc(Cl)ccc2[N+](=O)[O-])c1C | inconclusive [activator, partial curve] | – |
| C=CCOc1ccc2oc(=O)cc(C)c2c1 | inconclusive [activator, single point] | – |
| COCC(=O)Nc1ccc2c(c1)OCC(=O)N2Cc1ccc(C)cc1 | inconclusive [activator, partial curve, poor fit] | – |
| S=c1[nH]c2ccccc2n2cccc12 | active: 12.6 µM | – |
| COc1ccccc1Nc1nc(-c2cccs2)cs1 | inconclusive [activator, single point] | – |
| O=C(Cc1cccs1)N(Cc1ccco1)C1(C(=O)NC2CCCCC2)CCCCC1 | inactive | – |
| O=C(c1nc(-c2ccc(Cl)cc2)n2c1CCCCC2)N1CCN(c2ccc(F)cc2)CC1 | inconclusive [activator, single point] | – |
| O=C(c1ccccc1)c1ccc(N2CCN(C(=O)c3cccc(F)c3F)CC2)c(F)c1 | inconclusive [activator, single point] | – |
| O=C(COC(=O)c1cc(S(=O)(=O)N2CCCCC2)ccc1Cl)NC1CCS(=O)(=O)C1 (configuration not stated) | inactive | – |
| COc1cc(O)c(C(=O)CC(=O)c2ccncc2)c(OC)c1 | inconclusive [activator, single point] | – |
| O=C(CCl)N1c2ccccc2Oc2ccc3ccccc3c21 | – | inconclusive: -82.2% [activator] |
| CCOc1cc(C#N)c(NC(=O)c2ccc(OC)c(S(=O)(=O)N3CCCC3)c2)cc1OCC | inconclusive [activator, partial curve, poor fit] | – |
